# According to the supplement of paper PMC8728848:
# The list shows a part of the results.
# B1: Siglec-9 (Homo sapiens), Q9Y336 (protein)
# chain: MLLLLLPLLWGRERAEGQTSKLLTMQSSVTVQEGLCVHVPCSFSYPSHGWIYPGPVVHGYWFREGANTDQDAPVATNNPARAVWEETRDRFHLLGDPHTKNCTLSIRDARRSDAGRYFFKMEKGSIKWNYKHHRLSVNVTALTHRPNILIPGTLESGCPQNLTCSVPWACEQGTPPMISWIGTSVSPLDPSTTRSSVLTLIPQPQDHGTSLTCQVTFPGASVTTNKTVHLNVSYPPQNLTMTVFQGDGTVSTVLGNGSSLSLPEGQSLRLVCAVDAVDSNPPARLSLSWRGLTLCPSQPSNPGVLELPWVHLRDAAEFTCRAQNPLGSQQVYLNVSLQSKATSGVTQGVVGGAGATALVFLSFCVIFVVVRSCRKKSARPAAGVGDTGIEDANAVRGSASQGPLTEPWAEDSPPDQPPPASARSSVGEGELQYASLSFQMVKPWDSRGQEATDTEYSEIKIHR
# Legend:
# Assay in all cases: glycan array binding signal (z-score within array); higher = stronger binding
# Conditions in all cases: glycan notation: IUPAC condensed, linker removed; mutation: R120K
# [1] = biological target: Man(a1-3)[Man(a1-6)]Man(a1-6)[Man(a1-2)Man(a1-3)]Man(b1-4)GlcNAc(b1-4)GlcNAc
# Procedure, shortened: (§1)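 Negative Z-scores can be read as non-binding. The Z-score is calculated within each array and then averaged across arrays of one protein sequence at different concentrations or buffers and across linkers. Arrays, 3228 in all, were curated from the Consortium for Functional Glycomics database and kept only where the protein sequence was available.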
# [2] = biological target: Man(a1-3)[Man(a1-6)]Man(a1-6)[Man(a1-3)]Man
# Procedure, shortened: as §1
# [3] = biological target: Man(a1-3)[Man(a1-6)]Man(a1-6)[Man(a1-3)]Man(b1-4)GlcNAc(b1-4)GlcNAc
# Procedure, shortened: as §1
# [4] = biological target: Man(a1-3)[Man(a1-6)]Man(b1-4)GlcNAc(b1-4)GlcNAc
# Procedure, shortened: as §1
# [5] = biological target: Man(a1-3)[Man(a1-6)]Man(b1-4)GlcNAc(b1-4)[Fuc(a1-6)]GlcNAc
# Procedure, shortened: as §1
# Man(a1-6)Man = biological target: Man(a1-6)Man
# Procedure, shortened: as §1
# Man(b1-4)GlcNAc = biological target: Man(b1-4)GlcNAc
# Procedure, shortened: as §1
# MurNAc(b1-4)GlcNAc = biological target: MurNAc(b1-4)GlcNAc
# Procedure, shortened: as §1
# Neu5Ac(a2-3)Gal = biological target: Neu5Ac(a2-3)Gal
# Procedure, shortened: as §1
# [6] = biological target: Neu5Ac(a2-3)Gal(b1-3)GalNAc
# Procedure, shortened: as §1
# [7] = biological target: Neu5Ac(a2-3)Gal(b1-3)GalNAc(b1-3)Gal(a1-4)Gal(b1-4)Glc
# Procedure, shortened: as §1
# [8] = biological target: Neu5Ac(a2-3)Gal(b1-3)GalNAc(b1-4)Gal(b1-4)Glc
# Procedure, shortened: as §1
# [9] = biological target: Neu5Ac(a2-3)Gal(b1-3)GalNAc(b1-4)[Neu5Ac(a2-3)]Gal(b1-4)Glc
# Procedure, shortened: as §1
# [10] = biological target: Neu5Ac(a2-3)Gal(b1-3)GalNAc(b1-4)[Neu5Ac(a2-8)Neu5Ac(a2-3)]Gal(b1-4)Glc
# Procedure, shortened: as §1
# [11] = biological target: Neu5Ac(a2-3)Gal(b1-3)GalNAc6S
# Procedure, shortened: as §1
# [12] = biological target: Neu5Ac(a2-3)Gal(b1-3)GlcNAc
# Procedure, shortened: as §1
# [13] = biological target: Neu5Ac(a2-3)Gal(b1-3)GlcNAc(b1-2)Man
# Procedure, shortened: as §1
# [14] = biological target: Neu5Ac(a2-3)Gal(b1-3)GlcNAc(b1-2)Man(a1-3)[GlcNAc(b1-4)][Neu5Ac(a2-3)Gal(b1-3)GlcNAc(b1-2)Man(a1-6)]Man(b1-4)GlcNAc(b1-4)GlcNAc
# Procedure, shortened: as §1
# [15] = biological target: Neu5Ac(a2-3)Gal(b1-3)GlcNAc(b1-2)Man(a1-3)[Neu5Ac(a2-3)Gal(b1-3)GlcNAc(b1-2)Man(a1-6)]Man(b1-4)GlcNAc(b1-4)GlcNAc
# Procedure, shortened: as §1
# [16] = biological target: Neu5Ac(a2-3)Gal(b1-3)GlcNAc(b1-2)[Neu5Ac(a2-3)Gal(b1-3)GlcNAc(b1-4)]Man(a1-6)[Neu5Ac(a2-3)Gal(b1-3)GlcNAc(b1-2)Man(a1-3)]Man(b1-4)GlcNAc(b1-4)GlcNAc
# Procedure, shortened: as §1
# [17] = biological target: Neu5Ac(a2-3)Gal(b1-3)GlcNAc(b1-3)Gal(b1-3)GlcNAc
# Procedure, shortened: as §1
# [18] = biological target: Neu5Ac(a2-3)Gal(b1-3)GlcNAc(b1-3)Gal(b1-4)GlcNAc
# Procedure, shortened: as §1
# [19] = biological target: Neu5Ac(a2-3)Gal(b1-3)GlcNAc(b1-3)GalNAc
# Procedure, shortened: as §1
# [20] = biological target: Neu5Ac(a2-3)Gal(b1-3)GlcNAc(b1-6)GalNAc
# Procedure, shortened: as §1
# [21] = biological target: Neu5Ac(a2-3)Gal(b1-3)GlcNAc6S
# Procedure, shortened: as §1
# [22] = biological target: Neu5Ac(a2-3)Gal(b1-3)[Fuc(a1-4)]GlcNAc
# Procedure, shortened: as §1
# [23] = biological target: Neu5Ac(a2-3)Gal(b1-3)[Fuc(a1-4)]GlcNAc(b1-3)Gal(b1-3)[Fuc(a1-4)]GlcNAc
# Procedure, shortened: as §1
# [24] = biological target: Neu5Ac(a2-3)Gal(b1-3)[Fuc(a1-4)]GlcNAc(b1-3)Gal(b1-4)[Fuc(a1-3)]GlcNAc
# Procedure, shortened: as §1
# [25] = biological target: Neu5Ac(a2-3)Gal(b1-3)[GlcNAc(b1-6)]GalNAc
# Procedure, shortened: as §1
# [26] = biological target: Neu5Ac(a2-3)Gal(b1-3)[Neu5Ac(a2-6)]GalNAc
# Procedure, shortened: as §1
# [27] = biological target: Neu5Ac(a2-3)Gal(b1-3)[Neu5Ac(a2-6)]GlcNAc(b1-3)[Fuc(a1-3)[Gal(b1-4)]GlcNAc(b1-6)]Gal(b1-4)Glc
# Procedure, shortened: as §1
# [28] = biological target: Neu5Ac(a2-3)Gal(b1-3)]Neu5Ac(a2-3)Gal(b1-4)]GlcNAc
# Procedure, shortened: as §1
# Neu5Ac(a2-3)Gal(b1-4)Glc = biological target: Neu5Ac(a2-3)Gal(b1-4)Glc
# Procedure, shortened: as §1
# [29] = biological target: Neu5Ac(a2-3)Gal(b1-4)GlcNAc
# Procedure, shortened: as §1
# [30] = biological target: Neu5Ac(a2-3)Gal(b1-4)GlcNAc(b1-2)Man
# Procedure, shortened: as §1
# [31] = biological target: Neu5Ac(a2-3)Gal(b1-4)GlcNAc(b1-2)Man(a1-3)[GlcNAc(b1-4)][Neu5Ac(a2-3)Gal(b1-4)GlcNAc(b1-2)Man(a1-6)]Man(b1-4)GlcNAc(b1-4)GlcNAc
# Procedure, shortened: as §1
# [32] = biological target: Neu5Ac(a2-3)Gal(b1-4)GlcNAc(b1-2)Man(a1-3)[Neu5Ac(a2-3)Gal(b1-4)GlcNAc(b1-2)Man(a1-6)]Man(b1-4)GlcNAc(b1-4)GlcNAc
# Procedure, shortened: as §1
# [33] = biological target: Neu5Ac(a2-3)Gal(b1-4)GlcNAc(b1-2)Man(a1-3)[Neu5Ac(a2-3)Gal(b1-4)GlcNAc(b1-2)Man(a1-6)]Man(b1-4)GlcNAc(b1-4)[Fuc(a1-6)]GlcNAc
# Procedure, shortened: as §1
binder,measurement,setting,value
B1,glycan array binding signal (z-score),[1],0.271
same,glycan array binding signal (z-score),[2],-0.329
same,glycan array binding signal (z-score),[3],0.694
same,glycan array binding signal (z-score),[4],-0.278
same,glycan array binding signal (z-score),[5],-0.037
same,glycan array binding signal (z-score),Man(a1-6)Man,0.192
same,glycan array binding signal (z-score),Man(b1-4)GlcNAc,-0.372
same,glycan array binding signal (z-score),MurNAc(b1-4)GlcNAc,-0.723
same,glycan array binding signal (z-score),Neu5Ac(a2-3)Gal,-0.145
same,glycan array binding signal (z-score),[6],4.95
same,glycan array binding signal (z-score),[7],-0.208
same,glycan array binding signal (z-score),[8],0.412
same,glycan array binding signal (z-score),[9],-0.03
same,glycan array binding signal (z-score),[10],0.069
same,glycan array binding signal (z-score),[11],-0.189
same,glycan array binding signal (z-score),[12],-0.28
same,glycan array binding signal (z-score),[13],0.105
same,glycan array binding signal (z-score),[14],0.17
same,glycan array binding signal (z-score),[15],3.12
same,glycan array binding signal (z-score),[16],-0.426
same,glycan array binding signal (z-score),[17],-0.724
same,glycan array binding signal (z-score),[18],-0.308
same,glycan array binding signal (z-score),[19],0.017
same,glycan array binding signal (z-score),[20],0.486
same,glycan array binding signal (z-score),[21],0.096
same,glycan array binding signal (z-score),[22],-0.157
same,glycan array binding signal (z-score),[23],-0.114
same,glycan array binding signal (z-score),[24],-0.008
same,glycan array binding signal (z-score),[25],-0.241
same,glycan array binding signal (z-score),[26],-0.344
same,glycan array binding signal (z-score),[27],-0.514
same,glycan array binding signal (z-score),[28],-0.118
same,glycan array binding signal (z-score),Neu5Ac(a2-3)Gal(b1-4)Glc,4.42
same,glycan array binding signal (z-score),[29],-0.401
same,glycan array binding signal (z-score),[30],0.712
same,glycan array binding signal (z-score),[31],-0.284
same,glycan array binding signal (z-score),[32],-0.478
same,glycan array binding signal (z-score),[33],-0.324
